Test results taken from PubChem BioAssay AID463173 (ICCB-Longwood Screening Facility, Harvard Medical School, 2010).
Hit rate of the full screen: of about 52,000 compounds, about 4,300 (8.3%) were called active. Rule as the data show it: active = survival mostly below about 52% (no sharp cut-off); inactive = mostly above about 56%. This is one part of the list.

system: DeltatarO mutant; experiment: growth inhibition of S. aureus wild type versus tarO mutant, primary screen, teichoic acid synthesis inhibitors, RN4220, OD600 (AID 463173); details: OD600, 18 h, active compounds read low, screened at 18.75 µg/mL (by protocol)

| SMILES | survival |
| --- | --- |
| CCCN1CCc2nc(SCC(=O)Nc3ccc(C)c(Cl)c3)[nH]c(=O)c2C1 | inactive: 97% |
| N#Cc1c(N)n[nH]c1-c1cc2c([nH]1)CCCC2 | inactive: 96% |
| Cc1cc(N2CCN(c3cccc(C(F)(F)F)c3)CC2)n2nc(-c3ccccc3C)nc2n1 | active: 2% |
| CCCOc1ccc(C2C(=O)N(C3CCCCCC3)CC(=O)N2Cc2ccc(OC)cc2)cc1OC (stereo not drawn) | inactive: 72% |
| CCN(CC)S(=O)(=O)c1ccc2c(c1)N(CC(=O)NCc1ccc(F)cc1)C(=O)CO2 | inactive: 75% |
| CCC(C)NC(=O)CSc1nc2c(sc3ccccc32)c(=O)n1CCc1ccccc1 (stereo not drawn) | inactive: 94% |
| O=S(=O)(c1cccc(C(F)(F)F)c1)N1CCC(Oc2ccc(-n3cnnn3)cc2)CC1 | inactive: 73% |
| Cc1ccc2oc(=O)c3cnn(CC(=O)N4CCN(c5cccc(C(F)(F)F)c5)CC4)c3c2c1 | inactive: 87% |
| CC(C)=CCCC1=CCC2C(=O)NNC(=O)C2C1 (stereo not drawn) | inactive: 87% |
| O=c1[nH]c2ccc(NCc3ccc(-c4ccccc4F)o3)cc2[nH]1 | inactive: 81% |
| Cc1ccc(C(C)C)c(OCC(=O)Nc2cccc(-c3nc4ncccc4o3)c2)c1 | active: 2% |
| CCOc1ccc(NC(=O)N(Cc2ccc(CC)cc2)Cc2cn[nH]c2-c2ccc(OC)cc2)cc1 | inactive: 58% |
| COc1cccc(Oc2nc3c(c(=O)n(Cc4ccccc4Cl)c(=O)n3C)n2C)c1 | inactive: 73% |
| CCOc1ccc(-c2cc3c(=O)n(Cc4nc(-c5ccc(OC)cc5OC)oc4C)ccn3n2)cc1Cl | inactive: 184% |
| c1ccc(CSc2nnc(C3CCNCC3)o2)cc1 | inactive: 91% |
| COC(=O)c1ccc(NC(=O)CCn2cccn2)cc1 | inactive: 76% |
| CC(=O)Nc1nc2ccccc2n1Cc1ccc(C)cc1 | inactive: 87% |
| Cc1cc2c(cc(C(=O)OC(C(=O)NCC3CCCO3)C(C)C)n2C)o1 (stereo not drawn) | inactive: 84% |
| C1=CCC(CN2CCN(Cc3ccccc3)CC2)CC1 (stereo not drawn) | inactive: 87% |
| CN(CC(=O)NCc1ccccc1Cl)S(=O)(=O)c1ccc2c(c1)c(=O)n(C)c(=O)n2C | inactive: 130% |
| Cc1sc2ncn(CC(=O)N3CCN(c4ccccc4F)CC3)c(=O)c2c1S(=O)(=O)N1CCN(c2ncccn2)CC1 | inactive: 66% |
| Cc1ccc(Cl)cc1N1CCN(C(=O)Cc2c(C(=O)O)c(C)cn2C)CC1 | inactive: 81% |

| SMILES | survival |
| --- | --- |
| O=c1c(-c2cc(-c3ccc(Cl)cc3)nc3c2COc2ccccc2-3)coc2ccccc12 | inactive: 84% |
| CCC(=O)N1CCc2cc(Br)cc(S(=O)(=O)CCC(=O)NCCc3ccc(C)cc3)c21 | inactive: 124% |
| CC(C)CC(NC(N)=O)C(=O)O (stereo not drawn) | inactive: 87% |
| COc1ccccc1NC(=O)c1nnn(-c2ccc(F)cc2)c1C | inactive: 78% |
| Cc1cc(F)ccc1NC(=O)C(C(C)C)N1Cc2ccccc2C1=O (stereo not drawn) | inactive: 109% |
| CN(C)CCCNc1ncnc2ccc(Br)cc12 | inactive: 64% |
| COc1ccc(CNC(=O)c2ccc3c(c2)N(Cc2ccccc2)C(=O)c2ccccc2S3=O)cc1 (stereo not drawn) | inactive: 87% |
| CCc1ccccc1OCCSc1nc(-c2cccs2)nc2cc(=O)[nH]n12 | inactive: 94% |
| CC(=O)Nc1ccc(S(=O)(=O)NC2=NCN(C(C)C)CN2)cc1 | inactive: 125% |
| COc1ccc(C(=O)N2CC(=O)Nc3ccc(C)cc3C2c2ccc(F)cc2)c(OC)c1 (stereo not drawn) | inactive: 168% |
| COc1ccc(CNc2nc(-c3ccco3)nn2S(=O)(=O)c2ccc3ccccc3c2)cc1OC | active: 58% |
| Cc1ccc(C)c(NC(=O)Cn2c(=O)n(Cc3nc(C)no3)c(=O)c3cc4c(cc32)OCO4)c1 | inactive: 83% |
| CCc1ccc(NC(=O)Cn2c(=O)n(Cc3ccc4c(c3)OCO4)c(=O)c3oc4ccccc4c32)cc1 | inactive: 83% |
| CCc1c(C)nc2cc(-c3cc(OC)cc(OC)c3)nn2c1NCCO | inactive: 95% |
| Cc1ccc(S(=O)(=O)n2nc(-c3ccccc3)nc2NCc2ccccc2Cl)cc1 | inactive: 85% |
| Cc1cccc(N2C(=O)C(CC(=O)Nc3ccc(F)cc3)N(C3CCCC3)C2=O)c1 (stereo not drawn) | inactive: 130% |
| Cc1ccc(-c2cc(C(=O)N3CCN(S(=O)(=O)c4ccc(Br)s4)CC3)[nH]n2)cc1C | inactive: 83% |
| Cc1oc2ccc(O)c(CN3CCN(C)CC3)c2c1C(=O)Nc1ccc(C(C)C)cc1 | inactive: 95% |
| Cc1cc2c(cc1C)CN(c1cccc(C(=O)N/N=C/c3ccco3)c1)C2 | inactive: 85% |
| COc1ccc(CNC(=O)C(OC(C)=O)c2ccccn2)cc1 (stereo not drawn) | inactive: 87% |
| Cc1cc(C)c(C#N)c(NC2CCCCC2)n1 | inactive: 87% |
| CC(C)c1ccc(NC(=O)CSC2=Nc3ccccc3C3=NC(CCC(=O)NCc4ccc(F)cc4)C(=O)N23)cc1 (stereo not drawn) | inactive: 92% |

| SMILES | survival |
| --- | --- |
| COc1ccc(-c2nc(C)c(CCNC(=O)c3ccco3)s2)cc1 | inactive: 71% |
| CCC(C)Sc1nc2c([nH]c3ccccc32)c(=O)n1C (stereo not drawn) | inactive: 85% |
| CCN1CCN(C(=O)c2ccc3c(c2)N(Cc2c(F)cccc2Cl)C(=O)c2ccccc2S3)CC1 | inactive: 86% |
| Cc1ccccc1COC(=O)c1ccc(-c2nnn(Cc3ccccc3F)n2)cc1 | inactive: 54% |
| O=c1c(-c2cc(-c3ccc(F)cc3)nc3c2COc2ccc(Cl)cc2-3)coc2ccc(F)cc12 | inactive: 88% |
| Cc1ccc(-c2noc(CN(C3CCCCC3)S(=O)(=O)c3ccc(F)cc3)n2)cc1 | inactive: 78% |
| CC(=O)Nc1ccc(NC(=O)CSc2cn(CC(=O)N(C(C)C)C(C)C)c3ccccc23)cc1 | inactive: 72% |
| Cc1cc2oc(C(=O)NCCc3ccc(S(N)(=O)=O)cc3)cc(=O)c2cc1C | inactive: 55% |
| CCC(=O)N1CCc2cc(S(=O)(=O)NC(Cc3ccccc3)C(=O)NCc3ccc(C)cc3)ccc21 (stereo not drawn) | inactive: 78% |
| COc1ccc(OCCn2cc(C(=O)c3ccco3)c3ccccc32)cc1 | inactive: 56% |
| CCOc1ccccc1CN1C(=O)c2ccccc2C1C(=O)NC1CCCCCC1 (stereo not drawn) | inactive: 66% |
| COC(=O)c1cc2occc2n1Cc1nc(-c2ccccc2C)oc1C | inactive: 87% |
| CCc1nnc(NC(=O)CSc2nc3c([nH]c4ccccc43)c(=O)n2-c2ccc(C)cc2)s1 | inactive: 122% |
| CCc1nc2ccc(C(=O)N3CCN(c4cccc(OC)c4)CC3)cc2nc1CC | inactive: 83% |
| Cc1ccc(C)c(-c2ccc(=O)n(Cc3ccc(F)cc3Cl)n2)c1 | active: 32% |
| O=C(COc1ccccc1)Nc1sc2c(c1C(=O)Nc1ccccc1)CCCCC2 | inactive: 85% |
| CCOC(=O)C1CCCN(C(=O)Cn2ncc3c4ccccc4n(Cc4ccc(F)cc4)c3c2=O)C1 (stereo not drawn) | inactive: 107% |
| O=C(CCCCCn1c(=O)[nH]c2ccccc2c1=O)N1CCN(c2ccc(Cl)cc2)CC1 | inactive: 87% |
| COC(=O)c1ccc(CNC(=O)c2nc(Cn3nc(C)c(Br)c3C)no2)cc1 | inactive: 59% |
| CC(C)C1Oc2ccccc2N(CC(=O)N(Cc2ccccn2)C2CC2)C1=O (stereo not drawn) | inactive: 93% |
| O=C1c2ccccc2N(Cc2ccc(Cl)cc2)C2=NCCN12 | inactive: 80% |
| O=C(CSc1nc2c([nH]c3ccccc32)c(=O)n1-c1cccc(Cl)c1)NCc1ccccc1 | inactive: 93% |

| SMILES | survival |
| --- | --- |
| CC(C)N(C(=O)CNCc1cccs1)C(C)C | inactive: 92% |
| CCc1ccc(NC(=O)C2CCCN(S(=O)(=O)c3cccc4cccnc34)C2)cc1 (stereo not drawn) | active: 58% |
| O=S(=O)(NCC(c1ccco1)N1CCOCC1)c1ccc(Cl)cc1 (stereo not drawn) | inactive: 86% |
| CCOC(=O)c1ccc(NC(=O)CCn2c(=O)oc3ccccc32)cc1 | inactive: 112% |
| CCOC(=O)CNC(=O)CC(c1cc(OC)c(OC)c(OC)c1)N1Cc2ccccc2C1=O (stereo not drawn) | active: 47% |
| CCN(CC)c1ccc(C(=O)Nc2ccc3nc(N(CC)CC)cc(C)c3c2)cc1 | inactive: 52% |
| Cc1ccc2[nH]c(CSc3nnc(NC(=O)COc4ccccc4Cl)s3)cc(=O)c2c1 | inactive: 75% |
| CN(Cc1ccccc1)C(=O)Cn1c(=O)c2cccn2c2ccc(F)cc21 | inactive: 73% |
| O=c1[nH]c(C2CCCN(S(=O)(=O)c3ccccc3Cl)C2)nc2c1nnn2Cc1ccc(OC(F)(F)F)cc1 (stereo not drawn) | inactive: 63% |
| COc1ccc(CNC(=O)CCCc2nnc3n(CCC(C)C)c(=O)c4sccc4n23)cc1 | inactive: 93% |
| Cn1cc(C(=O)NCCc2ccc(Cl)cc2)c(=O)c2cc(S(=O)(=O)N3CCOCC3)ccc21 | inactive: 85% |
| Cc1ccc(CCNC(=O)C2CC(=O)N(CCc3ccccc3)C2)cc1 (stereo not drawn) | inactive: 85% |
| COc1ccc(S(=O)(=O)N(CC(=O)O)c2cc(Cl)ccc2OC)cc1OC | inactive: 59% |
| COc1ccc(CCNC(=O)c2ccc3c(c2)c(C)c(C)n3Cc2ccccc2)c(OC)c1OC | inactive: 81% |
| CC(=O)c1cccc(-n2c(=O)c3c4c(sc3n(CC(=O)c3ccc(Cl)cc3)c2=O)CN(C(C)=O)CC4)c1 | inactive: 82% |
| CC1CCCCN1C(=O)CSc1n[nH]c(-c2ccccc2)n1 (stereo not drawn) | inactive: 85% |
| Cc1cccc(C(=O)N(Cc2ccco2)Cc2ccccc2F)c1 | inactive: 102% |
| N#Cc1ccccc1Cn1c(SCC(=O)Nc2ccc(F)cc2)nc2ccccc21 | inactive: 94% |
| O=C(COc1ccccc1)Nc1ccc2nc(SCC(=O)N3CCc4ccccc43)sc2c1 | inactive: 62% |
| Cn1cnc(S(=O)(=O)N2CCC(C(=O)Nc3ccc(C#N)cc3)CC2)c1 | inactive: 107% |
| Clc1cccc(N2CCN(c3c4c(nc5nncn35)CCC4)CC2)c1 | inactive: 98% |
| CC(=O)c1ccc(NC(=O)c2nc(-c3ccccc3)n(-c3ccccc3Cl)n2)cc1 | inactive: 64% |
